Values joined by “and” are separate entries in the source; they are usually repeats but may differ in a detail not shown here. Equal values may be shown once. Screen size: about 310,000 compounds; about 11,000 (3.5%) were called active. Inconclusive results, whose numbers are uncertain, are shown with a selection of clear calls. The call rests on the fitted dose curve; in most records, active means well fitted inhibition curve with a large enough effect; inconclusive means small, poorly fitted or top-dose-only effect, or effect the other way; inactive means flat fitted curve, though single readings scatter. A potency beside an inconclusive call is a rough fit, not a confirmed value.
experiment: VP16 counterscreen qHTS for inhibitors of ROR gamma transcriptional activity; details: Drosophila S2 Gal4-VP16 UAS-luciferase, luminescence, 20 h; activity, negative = inhibition: at 53.6 µM (top of the series);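 further: Gal4-VP16 expression switched on by copper sulfate through the metallothionein promoter; nearly all actives have a fitted effect of over 50% in size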
On the % scale 0 is the no-effect control and ±100 the full control effect; potency means the concentration at half of the fitted maximal effect; tags describe the fitted curve by direction and shape.

Row | SMILES | Potency | activity, negative = inhibition
1 | NC(=O)c1ccc(-n2nnnc2SCc2ccccc2)cc1 | inactive | –
2 | C=CCOc1ccc(C2=NOC(C(=O)Nc3ccc4c(c3)OCCO4)C2)cc1 (stereo unspecified) | inactive | –
3 | CC1(C)CC(=O)c2sc(NC(=O)CCS(=O)(=O)c3ccccc3)nc2C1 | active: 5.62 µM | –
4 | Cc1ccc(C2c3c(oc4ccccc4c3=O)C(=O)N2c2nnc(C(C)C)s2)o1 (stereo unspecified) | inconclusive: 28.2 µM [inhibitor, single point] | –
5 | COCCn1c(C)cc(C2=NNC(=NC(C)(C)C)SC2)c1C | inconclusive: 28.2 µM [activator, single point] | –
6 | CN1CCN(NC(=S)Nc2ccc(OC(F)F)cc2)CC1 | inconclusive: 25.1 µM [inhibitor, single point] | –
7 | COCCNC(=S)N/N=C/c1ccc(N2CCOCC2)cc1 | active: 20 µM | –
8 | COc1ccc(CC(=O)c2ccc(OC)c(OC)c2C)cc1OC | inconclusive: 20 µM [inhibitor, single point] | –
9 | CN(Cc1ccccc1)c1ncnc2sccc12 | inconclusive: 28.2 µM [inhibitor, single point] | –
10 | Cc1ccc(C(=O)N/C(=C/c2ccc(C(C)C)cc2)C(=O)NCCCN2CCOCC2)cc1 | inactive | –
11 | COCC(=O)N1CCC2(CC1)CCN(C(=O)Nc1cccc(C#N)c1)CC2 | inactive | –
12 | COc1cc(/C=C(\C#N)c2nc3c(s2)CC(C)CC3)ccc1O (stereo unspecified) | active: 4.47 µM | –
13 | C/C(Cn1cnc([N+](=O)[O-])n1)=N\NC(=O)c1ccc(Br)cc1 | inactive | –
14 | O=C(CCCCl)NC(=S)Nc1ccc(N2CCOCC2)cc1 | inconclusive: 17.8 µM [inhibitor, single point] | –
15 | Cc1ccccc1NS(=O)(=O)c1ccc(NC(=O)c2ccco2)cc1 | inconclusive: 12.6 µM [inhibitor, single point] | –
16 | S=C(NCCSCc1c(Cl)cccc1Cl)Nc1ccccc1 | active: 5.01 µM | –
17 | CC1(C)CCC[C@]2(C)C3CC(=O)O[C@@]3(C)CC[C@H]12 (stereo partly specified) | inactive | –
18 | COc1ccc(-n2c(=S)[nH]c3cc(C(=O)NCc4ccc(F)cc4)ccc3c2=O)c(OC)c1 | inconclusive: 25.1 µM [inhibitor, single point] | –
19 | O=C(Cc1c(F)cccc1Cl)Nc1ccccc1-c1ccccc1 | inactive | –
20 | COc1ccc(-c2csc3nc(-c4ccc(C)cc4)oc(=O)c23)cc1OC | inconclusive: 5.62 µM [activator, single point] | –
21 | O=C(Nc1ccc(F)cc1)c1ccc(S(=O)(=O)NCc2cccnc2)cc1 | inconclusive: 31.6 µM [inhibitor, single point] | –
22 | CC(Sc1nc2cc([N+](=O)[O-])ccc2n1-c1ccc(F)cc1)C(=O)NCc1ccc2c(c1)OCO2 (stereo unspecified) | inconclusive: 1 µM [inhibitor, full curve, poor fit] | –
23 | O=C(Nc1ccccc1)C(=O)Nc1cccnc1 | inconclusive: 20 µM [inhibitor, single point] | –

Row | SMILES | Potency | activity, negative = inhibition
24 | O=S(=O)(c1ccc(NC2CCCCC2)cc1)N1CCOCC1 | inconclusive: 35.5 µM [inhibitor, single point] | –
25 | Cc1nc2cc3nc(C)sc3cc2s1 | inconclusive: 35.5 µM [inhibitor, single point] | –
26 | Cc1ccc(-c2noc(-c3cccs3)n2)cc1 | inconclusive: 35.5 µM [inhibitor, single point] | –
27 | Cc1ccc(C(=O)N/N=C/c2ccc(-c3cccc(Cl)c3)o2)cn1 | active: 7.08 µM | –
28 | O=C(/C=C/c1ccco1)NC(=S)Nc1ccc(Cl)cn1 | inconclusive: 35.5 µM [inhibitor, single point] | –
29 | CO[C@H]1COC(=O)[C@H](C)NC(=O)C/C=C\[C@@H](C)[C@@H](NS(=O)(=O)c2ccc(C)cc2)COC(=O)C/C=C\[C@@H]1C | – | inactive: -3.67% [at 10 µM]
30 | COc1ccccc1Nc1nc(N)nc(-c2cc3ccccc3o2)n1 | inconclusive: 35.5 µM [inhibitor, single point] | –
31 | COc1cc(NC(=S)N2CCC(C(O)(c3ccccc3)c3ccccc3)CC2)cc(OC)c1 | inconclusive: 28.2 µM [inhibitor, single point] | –
32 | Cc1ccc(NC(=O)c2cc(-c3ccccc3)nn2-c2ccccc2)c(Br)c1 | inconclusive: 22.4 µM [inhibitor, single point] | –
33 | CC(C)(C)c1ccc(NC(=S)NCc2cccnc2)cc1 | inconclusive: 31.6 µM [inhibitor, single point] | –
34 | Cn1c(SCC(=O)N/N=C/C=C\c2ccco2)nc2ccccc21 | inconclusive: 6.31 µM [inhibitor, single point] | –
35 | Cc1c(C(=O)O)cccc1-c1ccc(/C=N/Nc2ccc(Br)cc2)o1 | inactive | –
36 | OC1NC(=S)N(c2ccccc2)C1O (stereo unspecified) | inactive | –
37 | Cc1ccc(C(=O)Nc2cccc(C(=O)N/N=C/c3ccc(O)cc3)c2)cc1 | inconclusive: 35.5 µM [inhibitor, single point] | –
38 | O=C(Nc1ccc(C2=NCCN2)cc1)c1ccc(C(=O)Nc2ccc(C3=NCCN3)cc2)c(Cl)c1 | inactive | –
39 | O=c1c2ccccc2n2c(-c3cccc(Cl)c3)nnc2n1Cc1ccccc1 | inconclusive: 35.5 µM [inhibitor, single point] | –
40 | Cc1ccc(C)c(C(C)NC(=O)c2ccc(Br)o2)c1 (stereo unspecified) | inconclusive: 22.4 µM [inhibitor, single point] | –
41 | Cc1cc(Br)ccc1NC(=O)c1ccccc1-c1ccccc1 | inactive | –
42 | CCCC(=O)N1CCN(c2ccc(NC(=O)c3ccc([N+](=O)[O-])o3)cc2Cl)CC1 | inconclusive: 35.5 µM [inhibitor, single point] | –
43 | CCc1cccc(CC)c1NC(=O)/C(C#N)=C/c1ccccc1C(F)(F)F | active: 10 µM | –
44 | O=C1N(c2ccccc2)C[C@@H]2C[C@@H](c3cc4ccccc4o3)N3CCC[C@@]123 | inconclusive: 12.6 µM [inhibitor, partial curve] | –
45 | O=S(=O)(c1ccccc1)N1N=C(c2ccccc2)CC1c1ccccc1F (stereo unspecified) | inconclusive: 35.5 µM [inhibitor, single point] | –
46 | COC(=O)CCCCCN1C(=O)NC(c2ccccc2)C(C(=O)OCc2ccccc2)=C1C (stereo unspecified) | inactive and inconclusive: 22.4 µM [inhibitor, single point] | –
